Measured values from the RNAGym collection of RNA variant scans (doi:10.1073/pnas.2313332121).
This sample is rich in variants without activity.

B1: TPR 5TU (parent)
chain: GGAUCUUCUCGAUCUAACAAAAAAGACAAAUCUGCCACAAAGCUUGAGAGCAUCUUCGGAUGCAGAGGCGGCAGCCUUCGGUGGCGCGAUAGCGCCAACGUUCUCAACUAUGACACGCAAAACGCGUGCUCCGUUGAAUGGAGUUUAUCAUG

Variants of: B1
Experiment: polymerase ribozyme fitness, log enrichment relative to wild type (log ratio); higher = more active; in vitro selection for triplet polymerase activity
Summary of the method: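 The heterodimeric triplet polymerase ribozyme's subunits were each mutagenized into PCR-built libraries and transcribed. Every library was selected once, in triplicate, by annealing with a biotinylated primer, the partner subunit and triplets, incubating frozen at −7 °C, gel-excising extended constructs, capturing on streptavidin beads and running RT-PCR. Input and output libraries were Illumina-sequenced, with genotypes kept only at ≥10 input reads and ≥1 read per output. Fitness, from inverse-variance-weighted replicate averages, is the base-2 logarithm of genotype enrichment over wild-type enrichment.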

Point of comparison: GGGUCUUCUCGAUCUAACAAAAAAGACAAAUCUGCCACAAAGCUUGAGAGCAUCUUCGGAUGCAGAGGCGGCAGCCUUCGGUGCCGCGAUAGCGCCAACGUUCUCAACUAUGACACGCAAAACGCGUGCUCCGUUGAAUGGAGUUUAUCAUG [A3G G84C], “polymerase ribozyme fitness (log ratio)” value -1.98. Against it:
- GGUUCUUCUCGAUCUUACAAAAAAGACAAAUCUGCCACAAAGCUUGAGAGCAUUAUCGGAUGCAGAGGCGGCAGCCUUCGGUGGUGCGAUAGCGCCACUGUUCUCAACUAUGACACGCAAAACGCGUGGUCCGUUGAAUGGAGUUUAUCAUG [A3U A16U C54U U55A C85U A98C C99U C129G] — lower, ≤ -4.2
- GGUUCUUCUCGAUCUAACAGAAAAGACAAGUCUGCCACAAAGCUUGAGAGCAUCUUAGGAUGCAGAGGCGGCAGCCUUCGGUGGCGCGAUAGCGCCAACGUUCUCAACUAUGACACGCAAAACGCGUGCUCCGUUGAAUGGCGUUUAUCAUG [A3U A20G A30G C57A A142C] — lower, ≤ -4.2
- GGGUCUUCUCGAUCUAACAAAAAAGACAAAUCUGCCACAAAGCUUGAGAGCAUCUUCGGAUGCAGAGGCGGCAGCCUUCGGUGGAGCGCUAGCGCCAACGUUCUCAAGUAUGACGCGCAAAACGCGUGCUCUGUUGAAAGGAGUUUAUCAUG [A3G C85A A89C C108G A115G C132U U139A] — lower, ≤ -4.2
- GGUUCUUCUCGAUCUAUCGAAAAAGACAAAUCUGCCACAAAGCUUGAGAGCAUCUUCGGAUGCAGAGACGGCAGCCUUCGGUGGCGCGAUAGCGCCAACGUUCUCAACUAUGACACGCAAAACGCGUGCUCCGUUGAAUGGAGUUUAUCAUG [A3U A17U A19G G68A] — lower, ≤ -4.2
- GGUUCUUCUCGAUCUAACUAAAAAGACAAAUCUGCCACAAAGCUUGAGAGCAUCUUUGGAUUCAGAGGUGGCAGCCUUCGGUGGUGCGAUAGCGCCAAGGUUCUCAACUAUGACACGCAAAACGCGUGCCCCGUUUAAUGGAGUUGAUCAUG [A3U A19U C57U G62U C69U C85U C99G U130C G136U U146G] — lower, ≤ -4.2
- GGGUCUUCUCGAUCUAACAAAAAAGACAAAUCUGCCACAAAGCUUGAGAGCAUCUUCGGAUGCAGAGGCGGCAGACUUCGGUGUCUCGAUAGCGCCAACGAUCUCAAUUAUGACACGCAAAACGCGGGCUCCGUUGAAUGGAGUUUAUCAUG [A3G C75A G84U G86U U101A C108U U127G] — lower, ≤ -4.2
- GGUUCUUCUCGAUCUGACAAAAAAGACAAAUCUUCCACAAAGCUUGAGAGCAUCUUAGGAUGCAGAGGCGGCAGCAUUCGGUGGCGAGAUAGCGCCAACGUUCUCAACUAUGACACGCAAAACGCGUGCUCCGUUGAAUGGAGUUUAUCAUG [A3U A16G G34U C57A C76A C87A] — lower, ≤ -4.2
- GGUUCUUCUCGAUCUAACACAAAAGACAAAUCUGCCACAAAGCUUGAGAGCAUCUUCCGAUGCAGAGGCGGCUGCCUUCGAUGGCGCGAUAGCGCCAACGUUCUCAACUAUGACACGCAAAACGCGUGCUCCGUUGAAUGGAGUUUCUCAUG [A3U A20C G58C A73U G81A A147C] — lower, ≤ -4.2
- GGUUCUUCUCGAUCUAUCAAGAAAGACAAAUCUGCCACAAAGCUUGAGAGCAGCUUCGGAUGCAGAGGCGGCAGCCUUCGGUGUCGCAAUAGCGCCAACGUUCUCAACUAUGACACGCAAAACGCGUGCUCCGUUGAAUGGAGUGUAUCAUG [A3U A17U A21G U53G G84U G88A U145G] — lower, ≤ -4.2
- GGUUCUUCUCGAUCUAACAGAAAAGACAAUUCUGCCACAAAGCUGGAGAGCAUAUUCGAAUGCAGAGGCGGCAGCCUUCGGUGGAGCGAUAGCGCCAACGUUCUCAACUAUGAAACGCAAAACGCGUGCUCCGUUGAAUGGAGUUUAUCAUG [A3U A20G A30U U45G C54A G59A C85A C114A] — lower, ≤ -4.2
- GGUUCUUCUCGAUCUAACAUAAAAGACAAAUAUGCCACAAAGCUUGAGAGCAUCUUCGGAUGCAGCGGCGGCAGCCUUCGGUUGCGCGAUAGCGCUAACGUUCUCAACUAUGACACGCAAAACGCGUGCUCCGUUGAAUGGAGCUUAUCAUG [A3U A20U C32A A66C G83U C96U U144C] — lower, ≤ -4.2
- GGGUCUUCUCGAUCUAACAAAAAAGACAAAUCUGCCACAAAGCUGGAGAGCAUCUACGGAUGCAGAGGCGGCAGCCUUCAGUGGAGCGAUAGCGCCAACGUUCUCAACUAUGACAGGCAAAACGCGUGCUCCGUUGAAUGGAGCUUAUCAUG [A3G U45G U56A G80A C85A C116G U144C] — lower, ≤ -4.2
- GGUUCUUCUCGAUCUAACACACAAGUCAAAUCUGCCGCAAAGCUUGAGAGCAUCUUCGGAUGCAGAGGCGGCAGCCUUCGGUGCCGCGAUAGCGCCACCGUUCUCAACUAUGACACGUAAAAUGCGUGCUCUGUUGAAUGGAGUUUAUCAUG [A3U A20C A22C A26U A37G G84C A98C C118U C123U C132U] — lower, ≤ -4.2
- GGGUCUUCUCCAUCUAACAAAAAAGACAAAUCUGCCACAAAGCUUGAGAGCAUCUUCGGAUGCAGAGGCGGCAGCCUUCGGUGGCGAGAUUGCGCCAACGUUCUCAACUAUGACACGCAAAACGCGUGCUCCGUUGGAUGGAGUUUAUCAUG [A3G G11C C87A A91U A137G] — lower, ≤ -4.2
- GGGUCUUCUCGAUCUAACAAAAAAGACAAAUCUGCCACAAAGCUUGAGAGCAUCUUGGGAUGCAGAGGCGGCUGCCUUCGGUAGCGCGAUAGUGCAAACGUUCUCAACUAUGACACGCAAAACGCGUGCUCCGUUGAAUGGAGUUUAUCAUG [A3G C57G A73U G83A C93U C96A] — lower, ≤ -4.2
- GGUUCUUCUCGAUCUACCAAAAAAGACAAAUCUGCCACAAAGCUUGAGAGCAUCUUCGGAUGCAGAGGCGGCAGCCUUCGGUGGCGCGUUAGCGCCAACGUUCUCAACUAUGACACGCAAAACGCGUGCUCUGUUGAAUGGAGUUUAUCAUG [A3U A17C A89U C132U] — higher, -1.09
- GGGUCUUCUCGAUCUAACAAAAAAGACAAAUCUGCCACAAAGCUUGAGAGCAUCUUCGGAUGCAGAGGCGGCAGCCUUCGGUGGCACGAUAGCGCCAACGUUCUCAACUAUGACACGCAAAACGCGUGCUCCGUUGAAUGGAGUUUAUCAUG [A3G G86A] — higher, -1.52
- GGGUCUUCUCGAUCUAACAAAAAAGAUAAAUCUGCCACAAAGCUUGAGAGCAUCUUCGGAUGCAGAGGCGGCAGCCUUCGGUGGCACGAUAGCGCCAACGUUCUCAACUAUGACACGCAAAACGCGUGCUCCGUUGAAUGGAGUUUAUCAUG [A3G C27U G86A] — lower, -3.94
